Drawing on article PMC7351759, “Nuclear moonlighting of cytosolic glyceraldehyde-3-phosphate dehydrogenase regulates Arabidopsis response to heat stress” (Nature Communications, 2020), this text covers binding for 3 molecules.

Sequences of proteins named here, by UniProt entry; tags and fusion partners are left off.
UniProt Q9FX54: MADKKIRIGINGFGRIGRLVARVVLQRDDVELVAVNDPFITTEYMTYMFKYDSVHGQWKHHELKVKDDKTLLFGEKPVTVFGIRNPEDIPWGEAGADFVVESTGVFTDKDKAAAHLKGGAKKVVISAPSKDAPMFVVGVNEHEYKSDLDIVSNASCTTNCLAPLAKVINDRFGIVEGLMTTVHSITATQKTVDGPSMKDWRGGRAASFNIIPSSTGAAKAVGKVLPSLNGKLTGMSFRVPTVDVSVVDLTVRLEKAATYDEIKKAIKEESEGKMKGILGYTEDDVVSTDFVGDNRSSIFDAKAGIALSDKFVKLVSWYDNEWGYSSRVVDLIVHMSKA
UniProt P25858: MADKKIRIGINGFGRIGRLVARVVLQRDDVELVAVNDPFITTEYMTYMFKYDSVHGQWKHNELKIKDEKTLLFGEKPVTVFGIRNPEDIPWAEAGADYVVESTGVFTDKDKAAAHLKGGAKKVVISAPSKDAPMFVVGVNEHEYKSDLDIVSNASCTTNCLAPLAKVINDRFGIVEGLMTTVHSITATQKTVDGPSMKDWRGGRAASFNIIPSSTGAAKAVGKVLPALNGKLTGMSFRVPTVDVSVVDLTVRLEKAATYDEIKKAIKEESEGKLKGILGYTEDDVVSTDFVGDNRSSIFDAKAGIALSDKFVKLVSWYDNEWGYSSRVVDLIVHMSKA

Results are given in words; binding and its absence hold for the method and conditions named. In cells and extracts the contact can be indirect. Some binding calls cover weakened binding; strength is not graded here. Sequences can lack the tags named with a protein.

Holding throughout (assay): split reporter; BiFC with YFP^N and YFP^C fusions co-expressed transiently in Nicotiana benthamiana leaves; confocal microscopy
Assay [1] concerns the target GAPC2-YFP^N (Arabidopsis) (UniProt Q9FX54).
In assay [2] the target is T1, GPA1-YFP^N (Gα subunit of heterotrimeric protein) (UniProt P18064).
T1 sequence: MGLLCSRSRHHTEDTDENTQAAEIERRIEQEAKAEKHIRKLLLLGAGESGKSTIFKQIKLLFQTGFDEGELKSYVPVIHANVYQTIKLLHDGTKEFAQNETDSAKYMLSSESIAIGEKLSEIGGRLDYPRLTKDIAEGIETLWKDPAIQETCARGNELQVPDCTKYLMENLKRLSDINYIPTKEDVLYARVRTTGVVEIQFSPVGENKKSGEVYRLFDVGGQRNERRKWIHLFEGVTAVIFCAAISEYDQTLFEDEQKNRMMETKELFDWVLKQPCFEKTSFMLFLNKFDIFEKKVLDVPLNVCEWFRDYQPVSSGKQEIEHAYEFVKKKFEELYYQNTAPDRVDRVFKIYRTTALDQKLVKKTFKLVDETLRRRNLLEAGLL

Assay [3] has as its target GAPC1-YFP^N (Arabidopsis) (UniProt P25858).
Assay [4] addresses T2, PLDα1-YFP^C (phospholipase Dα1) (UniProt Q38882).
T2 sequence: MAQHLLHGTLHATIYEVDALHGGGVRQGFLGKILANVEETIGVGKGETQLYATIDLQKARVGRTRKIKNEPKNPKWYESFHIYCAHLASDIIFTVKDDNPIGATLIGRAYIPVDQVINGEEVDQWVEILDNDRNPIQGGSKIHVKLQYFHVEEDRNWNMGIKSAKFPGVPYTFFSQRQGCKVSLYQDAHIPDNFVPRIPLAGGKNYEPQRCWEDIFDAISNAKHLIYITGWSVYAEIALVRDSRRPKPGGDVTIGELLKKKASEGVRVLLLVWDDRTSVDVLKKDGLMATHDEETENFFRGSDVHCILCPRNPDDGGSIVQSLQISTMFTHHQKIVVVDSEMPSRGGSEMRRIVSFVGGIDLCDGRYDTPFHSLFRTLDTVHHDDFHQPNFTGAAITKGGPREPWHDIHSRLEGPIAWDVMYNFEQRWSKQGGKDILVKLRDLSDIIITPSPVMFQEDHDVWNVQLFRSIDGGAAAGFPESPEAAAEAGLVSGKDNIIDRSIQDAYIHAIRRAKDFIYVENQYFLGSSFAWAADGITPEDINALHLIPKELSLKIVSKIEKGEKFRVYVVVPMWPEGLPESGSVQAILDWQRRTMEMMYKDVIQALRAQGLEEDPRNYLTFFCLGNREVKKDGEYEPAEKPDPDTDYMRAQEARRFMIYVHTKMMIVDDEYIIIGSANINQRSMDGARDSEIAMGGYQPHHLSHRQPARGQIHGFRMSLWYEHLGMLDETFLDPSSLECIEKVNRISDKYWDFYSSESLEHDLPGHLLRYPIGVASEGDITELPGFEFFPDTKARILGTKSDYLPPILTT

B1: NF-YC10-YFP^C (protein, UniProt Q58CM8 1-195)
chain: MRRPKSSHVRMEPVAPRSHNTMPMLDQFRSNHPETSKIEGVSSLDTALKVFWNNQREQLGNFAGQTHLPLSRVRKILKSDPEVKKISCDVPALFSKACEYFILEVTLRAWMHTQSCTRETIRRCDIFQAVKNSGTYDFLIDRVPFGPHCVTHQGVQPPAEMILPDMNVPIDMDQIEEENMMEERSVGFDLNCDLQ
On to B1, for which the results for the binding result in assay [1], in assay [2] and in assay [3] were “binds”, “no binding” and “binds”, respectively.

B2: GPA1-YFP^N (Gα subunit of heterotrimeric protein) (protein, UniProt P18064 1-383)
chain: MGLLCSRSRHHTEDTDENTQAAEIERRIEQEAKAEKHIRKLLLLGAGESGKSTIFKQIKLLFQTGFDEGELKSYVPVIHANVYQTIKLLHDGTKEFAQNETDSAKYMLSSESIAIGEKLSEIGGRLDYPRLTKDIAEGIETLWKDPAIQETCARGNELQVPDCTKYLMENLKRLSDINYIPTKEDVLYARVRTTGVVEIQFSPVGENKKSGEVYRLFDVGGQRNERRKWIHLFEGVTAVIFCAAISEYDQTLFEDEQKNRMMETKELFDWVLKQPCFEKTSFMLFLNKFDIFEKKVLDVPLNVCEWFRDYQPVSSGKQEIEHAYEFVKKKFEELYYQNTAPDRVDRVFKIYRTTALDQKLVKKTFKLVDETLRRRNLLEAGLL
Take B2: the binding result in assay [4] is “binds”.

B3: PLDα1-YFP^C (phospholipase Dα1) (enzyme, UniProt Q38882 1-810)
chain: MAQHLLHGTLHATIYEVDALHGGGVRQGFLGKILANVEETIGVGKGETQLYATIDLQKARVGRTRKIKNEPKNPKWYESFHIYCAHLASDIIFTVKDDNPIGATLIGRAYIPVDQVINGEEVDQWVEILDNDRNPIQGGSKIHVKLQYFHVEEDRNWNMGIKSAKFPGVPYTFFSQRQGCKVSLYQDAHIPDNFVPRIPLAGGKNYEPQRCWEDIFDAISNAKHLIYITGWSVYAEIALVRDSRRPKPGGDVTIGELLKKKASEGVRVLLLVWDDRTSVDVLKKDGLMATHDEETENFFRGSDVHCILCPRNPDDGGSIVQSLQISTMFTHHQKIVVVDSEMPSRGGSEMRRIVSFVGGIDLCDGRYDTPFHSLFRTLDTVHHDDFHQPNFTGAAITKGGPREPWHDIHSRLEGPIAWDVMYNFEQRWSKQGGKDILVKLRDLSDIIITPSPVMFQEDHDVWNVQLFRSIDGGAAAGFPESPEAAAEAGLVSGKDNIIDRSIQDAYIHAIRRAKDFIYVENQYFLGSSFAWAADGITPEDINALHLIPKELSLKIVSKIEKGEKFRVYVVVPMWPEGLPESGSVQAILDWQRRTMEMMYKDVIQALRAQGLEEDPRNYLTFFCLGNREVKKDGEYEPAEKPDPDTDYMRAQEARRFMIYVHTKMMIVDDEYIIIGSANINQRSMDGARDSEIAMGGYQPHHLSHRQPARGQIHGFRMSLWYEHLGMLDETFLDPSSLECIEKVNRISDKYWDFYSSESLEHDLPGHLLRYPIGVASEGDITELPGFEFFPDTKARILGTKSDYLPPILTT
For B3, the binding entry in assay [1] and in assay [3] was “no binding” throughout.
